Assay results as given in a collection of fitness landscapes (doi:10.1016/j.celrep.2020.107928).
In all, about 81,000 sequences were measured (“one-hybrid fitness for binding parS DNA”: median about -0.17, highest 2% from about 0.51 on). This is one part of the list.

B1: Caulobacter ParB omega fusion; a variant is named by its letters at X, in order, B8GW30 (parent)
chain: MESVVVGEPGMSEGRRGLGRGLSALLGEVDAAPAQAPGEQLGGSREAPIEILQRNPDQPRRTFREEDLEDLSNSIREKGVLQPILVRPSPDTAGEYQIVAGERAWRAAQRAGLKTVPIMVRELDDLAVLEIGIIENVQRADLNVLEEALSYKVLMEKFERTQENIAQTIGKSXSHVANXMRLLXLPDEVQSYLVSGELTAXHARAIAAAADPVALAKQIIEGGLSVRETEALARKAPNLSAGKSKGGRPPRVKDTDTQALESDLSSVLGLDVSIDHRGSTGTLTITYATLEQLDDLCNRLTRGI

Variants of: B1
Assay: one-hybrid fitness for binding parS DNA (scaled: cognate 1, non-cognate 0); higher = stronger binding
Conditions: with parS DNA site
Procedure, shortened: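 Bacterial one-hybrid selection in E. coli USO rpoZ- hisB- pyrF- with a HIS3 reporter carrying the site 19 bp from the promoter, screening Caulobacter ParB libraries with four specificity codons randomised (NNS). Cells grew 48 hours at 37°C on M9-minus-histidine plus 0.1 mM IPTG and 5 mM 3-AT. Plasmids before and after selection were Illumina-sequenced, three replicate libraries pooled, and variants under 10 reads dropped. Fitness is the log change in variant-to-wild-type read ratio, rescaled to cognate 1, non-cognate 0.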

| Variant | one-hybrid fitness for binding parS DNA |
| --- | --- |
| TSSF | ≤ 0.2 |
| SSIL | ≤ 0.2 |
| WLGG | ≤ 0.2 |
| HTPE | ≤ 0.2 |
| EMIK | ≤ 0.2 |
| LSGN | ≤ 0.2 |
| SVCA | ≤ 0.2 |
| MTTT | ≤ 0.2 |
| CLWI | ≤ 0.2 |
| PGLG | ≤ 0.2 |
| KRIE | ≤ 0.2 |
| YVAG | ≤ 0.2 |
| TGSL | ≤ 0.2 |
| QNWG | ≤ 0.2 |
| YLMV | ≤ 0.2 |
| PEDE | ≤ 0.2 |
| ANSW | ≤ 0.2 |
| AALN | ≤ 0.2 |
| EASY | ≤ 0.2 |
| TMFS | ≤ 0.2 |
| VPVF | ≤ 0.2 |
| TKPK | ≤ 0.2 |
| PERD | ≤ 0.2 |
| GFLS | ≤ 0.2 |

| Variant | one-hybrid fitness for binding parS DNA |
| --- | --- |
| GASC | ≤ 0.2 |
| IMHG | ≤ 0.2 |
| QLFF | ≤ 0.2 |
| TFPM | ≤ 0.2 |
| HAMN | ≤ 0.2 |
| SIPV | ≤ 0.2 |
| RCKR | ≤ 0.2 |
| TLAT | ≤ 0.2 |
| QYPK | ≤ 0.2 |
| QMAL | ≤ 0.2 |
| ALND | ≤ 0.2 |
| VLKH | ≤ 0.2 |
| VQSE | ≤ 0.2 |
| WELR | ≤ 0.2 |
| VQSW | ≤ 0.2 |
| PLRI | ≤ 0.2 |
| MKRI | ≤ 0.2 |
| KPNV | ≤ 0.2 |
| AMLV | ≤ 0.2 |
| LARF | ≤ 0.2 |
| AKDL | ≤ 0.2 |
| HRLT | ≤ 0.2 |
| EGGC | ≤ 0.2 |
| KHYG | ≤ 0.2 |

| Variant | one-hybrid fitness for binding parS DNA |
| --- | --- |
| ETAE | ≤ 0.2 |
| ACHE | ≤ 0.2 |
| PLLV | ≤ 0.2 |
| NGVC | ≤ 0.2 |
| KSSE | ≤ 0.2 |
| CPTA | ≤ 0.2 |
| YIGT | ≤ 0.2 |
| RCIL | ≤ 0.2 |
| CYLA | ≤ 0.2 |
| GLIT | ≤ 0.2 |
| TILD | ≤ 0.2 |
| EVTV | ≤ 0.2 |
| PDNL | ≤ 0.2 |
| SAVA | ≤ 0.2 |
| QYKC | ≤ 0.2 |
| WACS | ≤ 0.2 |
| HHNI | ≤ 0.2 |
| VVGS | ≤ 0.2 |
| NEKR | ≤ 0.2 |
| LSKS | ≤ 0.2 |
| NAGM | ≤ 0.2 |
| KRLL | ≤ 0.2 |
| HSPW | ≤ 0.2 |
| SRVA | ≤ 0.2 |

| Variant | one-hybrid fitness for binding parS DNA |
| --- | --- |
| WFTG | ≤ 0.2 |
| KYFS | ≤ 0.2 |
| RMPE | ≤ 0.2 |
| PAHS | ≤ 0.2 |
| EPST | ≤ 0.2 |
| KYER | ≤ 0.2 |
| TSET | ≤ 0.2 |
| NQNP | ≤ 0.2 |
| GNSA | ≤ 0.2 |
| VGNS | ≤ 0.2 |
| PSAP | ≤ 0.2 |
| AHEG | ≤ 0.2 |
| GQMS | ≤ 0.2 |
| DITC | ≤ 0.2 |
| VWSV | ≤ 0.2 |
| NLNA | ≤ 0.2 |
| WEAR | ≤ 0.2 |
| NSIG | ≤ 0.2 |
| VEAR | ≤ 0.2 |
| TTDS | ≤ 0.2 |
| GLSI | ≤ 0.2 |
| KRWY | ≤ 0.2 |
| PGLL | ≤ 0.2 |
| LCER | ≤ 0.2 |

| Variant | one-hybrid fitness for binding parS DNA |
| --- | --- |
| PGQT | ≤ 0.2 |
| LQNL | ≤ 0.2 |
| HFEC | ≤ 0.2 |
| MDAR | ≤ 0.2 |
| SIMK | ≤ 0.2 |
| HHIF | ≤ 0.2 |
| DETT | ≤ 0.2 |
| KAPF | ≤ 0.2 |
| LNQL | ≤ 0.2 |
| QSRK | ≤ 0.2 |
| WAYT | ≤ 0.2 |
| TQIR | ≤ 0.2 |
| LPKV | ≤ 0.2 |
| GVSH | ≤ 0.2 |
| GGPR | ≤ 0.2 |
| QKAP | ≤ 0.2 |
| ALHA | ≤ 0.2 |
| MVMR | ≤ 0.2 |
| AMSV | ≤ 0.2 |
| ICRN | ≤ 0.2 |
| DVLR | ≤ 0.2 |
| RSNH | 0.203 |
| GQHT | ≤ 0.2 |
| MPFY | ≤ 0.2 |

| Variant | one-hybrid fitness for binding parS DNA |
| --- | --- |
| DESW | ≤ 0.2 |
| PFFT | ≤ 0.2 |
| MDHR | ≤ 0.2 |
| RMED | ≤ 0.2 |
| FNKT | ≤ 0.2 |
| NQAG | ≤ 0.2 |
| TAKA | ≤ 0.2 |
| RHLD | ≤ 0.2 |
| RWRA | 0.474 |
| GSAP | ≤ 0.2 |
| YIKR | ≤ 0.2 |
| RQHK | ≤ 0.2 |
| FCHW | ≤ 0.2 |
| VTHP | ≤ 0.2 |
| GCQP | ≤ 0.2 |
| QAKT | ≤ 0.2 |
| WHRL | ≤ 0.2 |
| CICG | ≤ 0.2 |
| KFLR | ≤ 0.2 |
| QPDH | ≤ 0.2 |
| GFSG | ≤ 0.2 |
| QRIV | ≤ 0.2 |
| KPMS | ≤ 0.2 |
| PCAW | ≤ 0.2 |

| Variant | one-hybrid fitness for binding parS DNA |
| --- | --- |
| QQCA | ≤ 0.2 |
| KPDM | ≤ 0.2 |
| VPKK | ≤ 0.2 |
| RCWA | 0.68 |
| RWNH | ≤ 0.2 |
| PTEG | ≤ 0.2 |
| QREC | ≤ 0.2 |
| HAKH | ≤ 0.2 |
| LHVV | ≤ 0.2 |
| KRKS | ≤ 0.2 |
| NTWW | ≤ 0.2 |
| LHVM | ≤ 0.2 |
| PQTA | ≤ 0.2 |
| QLFK | ≤ 0.2 |
| QYQL | ≤ 0.2 |
| MPLM | ≤ 0.2 |
| RTSN | 0.422 |
| HWDG | ≤ 0.2 |
| SHAV | ≤ 0.2 |
| HMWT | ≤ 0.2 |
| STPR | ≤ 0.2 |
| PRTN | ≤ 0.2 |
| FNKV | ≤ 0.2 |
| SCEG | ≤ 0.2 |

| Variant | one-hybrid fitness for binding parS DNA |
| --- | --- |
| PKVP | ≤ 0.2 |
| APLL | ≤ 0.2 |
| VYCS | ≤ 0.2 |
| ATQN | ≤ 0.2 |
| HIDQ | ≤ 0.2 |
| ALTQ | ≤ 0.2 |
| HNLC | ≤ 0.2 |
| LATD | ≤ 0.2 |
| PSCS | ≤ 0.2 |
| RSYV | ≤ 0.2 |
| PVMP | ≤ 0.2 |
| HAPA | ≤ 0.2 |
| DQTE | ≤ 0.2 |
| MLGC | ≤ 0.2 |
| PSQF | ≤ 0.2 |
| YLDG | ≤ 0.2 |
| SNER | ≤ 0.2 |
| TLTQ | ≤ 0.2 |
| TSFV | ≤ 0.2 |
| LKGC | ≤ 0.2 |
| QQGT | ≤ 0.2 |
| TTQR | ≤ 0.2 |
| CTGG | ≤ 0.2 |
| RCFY | 0.443 |

| Variant | one-hybrid fitness for binding parS DNA |
| --- | --- |
| VVMF | ≤ 0.2 |
| VHNW | ≤ 0.2 |
| EMCG | ≤ 0.2 |
| YVYP | ≤ 0.2 |
| GIAA | ≤ 0.2 |
| HWRG | ≤ 0.2 |
| FWNR | ≤ 0.2 |
| LTWC | ≤ 0.2 |
| PQCG | ≤ 0.2 |
| LAFY | ≤ 0.2 |
| RMYA | 0.651 |
| ATTD | ≤ 0.2 |
| PYGW | ≤ 0.2 |
| RLWH | 0.3 |
| SLVY | ≤ 0.2 |
| ISMV | ≤ 0.2 |
| MAIV | ≤ 0.2 |
| MHAP | ≤ 0.2 |
| QSIE | ≤ 0.2 |
| AAEE | ≤ 0.2 |
| PRQD | ≤ 0.2 |
| CAMS | ≤ 0.2 |
| YDGS | ≤ 0.2 |
| ADPG | ≤ 0.2 |

| Variant | one-hybrid fitness for binding parS DNA |
| --- | --- |
| MCTS | ≤ 0.2 |
| HCWY | ≤ 0.2 |
| GSLS | ≤ 0.2 |
| NAPH | ≤ 0.2 |
| KTTP | ≤ 0.2 |
| MASS | ≤ 0.2 |
| LKVA | ≤ 0.2 |
| PRDR | ≤ 0.2 |
| RNHF | ≤ 0.2 |
| TCSE | ≤ 0.2 |
| QCGS | ≤ 0.2 |
| RPNT | ≤ 0.2 |
| RWQF | ≤ 0.2 |
| PPDW | ≤ 0.2 |
| EALD | ≤ 0.2 |
| DYNG | ≤ 0.2 |
| YELA | ≤ 0.2 |
| KWSR | ≤ 0.2 |
| AFMD | ≤ 0.2 |
| CQSG | ≤ 0.2 |
| TSWF | ≤ 0.2 |
| GYAA | ≤ 0.2 |
| MCQV | ≤ 0.2 |
| RNAG | 0.853 |

| Variant | one-hybrid fitness for binding parS DNA |
| --- | --- |
| ACPP | ≤ 0.2 |
| SLTY | ≤ 0.2 |
| TLPV | ≤ 0.2 |
| GWDS | ≤ 0.2 |
| THRA | ≤ 0.2 |
| RQYG | 0.994 |
| SCHS | ≤ 0.2 |
| SCKL | ≤ 0.2 |
| EYQE | ≤ 0.2 |
| PDWS | ≤ 0.2 |
| EVNV | ≤ 0.2 |
| QPFI | ≤ 0.2 |
| PGPP | ≤ 0.2 |
| QQDF | ≤ 0.2 |
| AGTI | ≤ 0.2 |
| CKDG | ≤ 0.2 |
| VLVE | ≤ 0.2 |
| DTEF | ≤ 0.2 |
| SQDM | ≤ 0.2 |
| HAIN | ≤ 0.2 |
| VIAS | ≤ 0.2 |
| WPKT | ≤ 0.2 |
| WACV | ≤ 0.2 |
| SEWF | ≤ 0.2 |

| Variant | one-hybrid fitness for binding parS DNA |
| --- | --- |
| RMNV | ≤ 0.2 |
| RETC | ≤ 0.2 |
| SNNR | ≤ 0.2 |
| ARDI | ≤ 0.2 |
| GVLG | ≤ 0.2 |
| KYVP | 0.208 |
| ILEY | ≤ 0.2 |
| SVWV | ≤ 0.2 |
| IQRH | ≤ 0.2 |
| CWRI | ≤ 0.2 |
| HCYG | ≤ 0.2 |
| YTWG | ≤ 0.2 |
| CESG | ≤ 0.2 |
| GAWI | ≤ 0.2 |
| HYKT | ≤ 0.2 |
| SQNR | ≤ 0.2 |
| IDVC | ≤ 0.2 |
| APED | ≤ 0.2 |
| QKIF | ≤ 0.2 |
| IDPV | ≤ 0.2 |
| MVLR | ≤ 0.2 |
| FYYS | ≤ 0.2 |
| FALS | ≤ 0.2 |
| KRAQ | ≤ 0.2 |

| Variant | one-hybrid fitness for binding parS DNA |
| --- | --- |
| EGAT | ≤ 0.2 |
| EQML | ≤ 0.2 |
| VIYM | ≤ 0.2 |
| FYCS | ≤ 0.2 |
| HVTT | ≤ 0.2 |
| PATY | ≤ 0.2 |
| FHPC | ≤ 0.2 |
| QLDE | ≤ 0.2 |
| AVIF | ≤ 0.2 |
| FMSS | ≤ 0.2 |
| LHLV | ≤ 0.2 |
| RCFK | ≤ 0.2 |
| VSRQ | ≤ 0.2 |
| QMSW | ≤ 0.2 |
| AWEF | ≤ 0.2 |
| RNIC | 0.523 |
| TIRF | ≤ 0.2 |
| HNST | ≤ 0.2 |
